No constants are given. Whether binding was seen depends on the method and setting. In cells and extracts the contact can be indirect. Some entries that bind do so weakly or less than the wild type. For some of these results: Where a sequence is shown, tags or fusion partners need not be part of it.

Protein sequences, listed by entry. Tags and fused reporters are not part of them.
UniProt P38631: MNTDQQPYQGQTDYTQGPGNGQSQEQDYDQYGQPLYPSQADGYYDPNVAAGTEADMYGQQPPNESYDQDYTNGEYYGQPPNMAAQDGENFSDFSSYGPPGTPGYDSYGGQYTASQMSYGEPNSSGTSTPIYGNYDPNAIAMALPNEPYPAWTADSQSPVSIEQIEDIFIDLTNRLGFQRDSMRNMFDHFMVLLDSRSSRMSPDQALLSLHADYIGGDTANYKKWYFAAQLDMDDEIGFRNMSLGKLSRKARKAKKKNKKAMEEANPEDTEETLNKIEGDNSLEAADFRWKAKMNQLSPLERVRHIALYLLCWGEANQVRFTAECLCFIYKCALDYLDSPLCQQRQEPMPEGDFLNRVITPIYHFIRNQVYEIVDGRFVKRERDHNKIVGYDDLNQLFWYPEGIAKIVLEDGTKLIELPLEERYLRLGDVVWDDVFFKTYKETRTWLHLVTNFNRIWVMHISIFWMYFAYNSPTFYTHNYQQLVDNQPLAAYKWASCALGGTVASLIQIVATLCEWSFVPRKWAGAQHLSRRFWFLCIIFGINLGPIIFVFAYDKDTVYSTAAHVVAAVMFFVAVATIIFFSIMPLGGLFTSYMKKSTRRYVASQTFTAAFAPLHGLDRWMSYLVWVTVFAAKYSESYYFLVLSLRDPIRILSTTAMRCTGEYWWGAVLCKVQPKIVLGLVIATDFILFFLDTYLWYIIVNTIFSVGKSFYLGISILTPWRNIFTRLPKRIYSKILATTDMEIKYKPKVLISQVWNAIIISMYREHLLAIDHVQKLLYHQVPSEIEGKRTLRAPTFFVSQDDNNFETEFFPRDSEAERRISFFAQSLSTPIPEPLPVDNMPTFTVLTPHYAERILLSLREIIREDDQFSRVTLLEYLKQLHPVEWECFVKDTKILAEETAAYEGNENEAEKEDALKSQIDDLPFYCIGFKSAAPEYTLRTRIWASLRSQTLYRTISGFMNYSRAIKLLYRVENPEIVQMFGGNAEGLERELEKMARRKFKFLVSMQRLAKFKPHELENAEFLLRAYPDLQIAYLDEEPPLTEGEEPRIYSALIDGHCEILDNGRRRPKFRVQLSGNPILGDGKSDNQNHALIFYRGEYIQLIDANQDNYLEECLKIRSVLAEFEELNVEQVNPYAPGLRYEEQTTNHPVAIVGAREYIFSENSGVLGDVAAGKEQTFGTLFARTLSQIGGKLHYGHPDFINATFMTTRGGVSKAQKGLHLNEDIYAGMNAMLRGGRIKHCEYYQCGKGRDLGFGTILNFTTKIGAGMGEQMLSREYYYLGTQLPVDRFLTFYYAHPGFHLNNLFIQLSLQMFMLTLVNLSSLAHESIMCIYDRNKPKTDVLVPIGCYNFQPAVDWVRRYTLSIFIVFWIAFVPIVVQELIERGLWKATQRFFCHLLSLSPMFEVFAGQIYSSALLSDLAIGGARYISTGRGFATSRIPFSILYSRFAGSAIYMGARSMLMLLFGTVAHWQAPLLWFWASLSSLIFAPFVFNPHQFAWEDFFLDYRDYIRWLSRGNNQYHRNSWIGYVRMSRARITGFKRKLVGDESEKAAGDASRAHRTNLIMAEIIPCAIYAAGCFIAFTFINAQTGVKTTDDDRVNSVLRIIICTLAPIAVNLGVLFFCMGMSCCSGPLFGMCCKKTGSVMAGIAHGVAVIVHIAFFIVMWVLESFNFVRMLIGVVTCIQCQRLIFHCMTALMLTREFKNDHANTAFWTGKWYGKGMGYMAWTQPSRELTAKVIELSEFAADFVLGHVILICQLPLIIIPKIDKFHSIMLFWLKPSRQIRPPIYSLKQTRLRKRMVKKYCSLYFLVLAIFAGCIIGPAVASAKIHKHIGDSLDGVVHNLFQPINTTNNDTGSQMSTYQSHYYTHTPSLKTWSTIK
UniProt P23201: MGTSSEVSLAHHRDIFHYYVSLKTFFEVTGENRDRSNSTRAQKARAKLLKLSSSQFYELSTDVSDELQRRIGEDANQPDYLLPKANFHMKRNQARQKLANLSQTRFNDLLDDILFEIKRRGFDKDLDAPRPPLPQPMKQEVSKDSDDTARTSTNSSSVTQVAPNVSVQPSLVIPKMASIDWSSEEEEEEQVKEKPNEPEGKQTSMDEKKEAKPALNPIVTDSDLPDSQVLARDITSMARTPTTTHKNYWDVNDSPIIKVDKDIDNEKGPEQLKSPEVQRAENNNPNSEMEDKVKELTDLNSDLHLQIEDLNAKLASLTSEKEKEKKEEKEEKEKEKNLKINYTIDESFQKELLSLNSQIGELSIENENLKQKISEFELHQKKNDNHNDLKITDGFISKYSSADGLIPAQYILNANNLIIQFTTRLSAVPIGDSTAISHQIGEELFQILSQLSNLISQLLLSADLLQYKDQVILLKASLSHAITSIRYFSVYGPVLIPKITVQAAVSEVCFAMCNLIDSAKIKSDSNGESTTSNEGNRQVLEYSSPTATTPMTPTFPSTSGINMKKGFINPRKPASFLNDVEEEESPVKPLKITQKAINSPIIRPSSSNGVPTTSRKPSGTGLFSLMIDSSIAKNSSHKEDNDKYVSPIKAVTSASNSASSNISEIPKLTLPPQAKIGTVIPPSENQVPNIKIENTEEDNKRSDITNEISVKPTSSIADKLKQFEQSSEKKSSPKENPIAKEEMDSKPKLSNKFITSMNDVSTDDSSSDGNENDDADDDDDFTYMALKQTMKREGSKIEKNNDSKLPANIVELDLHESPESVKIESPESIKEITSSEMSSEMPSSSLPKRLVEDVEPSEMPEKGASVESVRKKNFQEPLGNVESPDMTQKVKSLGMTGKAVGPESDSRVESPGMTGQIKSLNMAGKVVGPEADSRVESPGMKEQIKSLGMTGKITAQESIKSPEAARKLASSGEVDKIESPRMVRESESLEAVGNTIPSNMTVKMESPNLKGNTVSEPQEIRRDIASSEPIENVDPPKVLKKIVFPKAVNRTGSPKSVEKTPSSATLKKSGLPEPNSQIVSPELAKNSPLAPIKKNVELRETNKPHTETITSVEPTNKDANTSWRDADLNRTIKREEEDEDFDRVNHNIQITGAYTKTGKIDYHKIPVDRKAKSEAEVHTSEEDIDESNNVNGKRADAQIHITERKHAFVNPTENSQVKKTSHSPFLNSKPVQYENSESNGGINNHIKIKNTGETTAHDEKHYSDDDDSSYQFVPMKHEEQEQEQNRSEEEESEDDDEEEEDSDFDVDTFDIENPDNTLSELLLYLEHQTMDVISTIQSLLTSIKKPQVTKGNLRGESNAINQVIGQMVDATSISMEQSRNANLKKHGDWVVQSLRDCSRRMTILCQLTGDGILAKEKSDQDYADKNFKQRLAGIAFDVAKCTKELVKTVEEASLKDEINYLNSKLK

The target in assay [1] is T1, Bem1WK-Cub-RUra3 (S. cerevisiae) (UniProt P29366).
T1 sequence: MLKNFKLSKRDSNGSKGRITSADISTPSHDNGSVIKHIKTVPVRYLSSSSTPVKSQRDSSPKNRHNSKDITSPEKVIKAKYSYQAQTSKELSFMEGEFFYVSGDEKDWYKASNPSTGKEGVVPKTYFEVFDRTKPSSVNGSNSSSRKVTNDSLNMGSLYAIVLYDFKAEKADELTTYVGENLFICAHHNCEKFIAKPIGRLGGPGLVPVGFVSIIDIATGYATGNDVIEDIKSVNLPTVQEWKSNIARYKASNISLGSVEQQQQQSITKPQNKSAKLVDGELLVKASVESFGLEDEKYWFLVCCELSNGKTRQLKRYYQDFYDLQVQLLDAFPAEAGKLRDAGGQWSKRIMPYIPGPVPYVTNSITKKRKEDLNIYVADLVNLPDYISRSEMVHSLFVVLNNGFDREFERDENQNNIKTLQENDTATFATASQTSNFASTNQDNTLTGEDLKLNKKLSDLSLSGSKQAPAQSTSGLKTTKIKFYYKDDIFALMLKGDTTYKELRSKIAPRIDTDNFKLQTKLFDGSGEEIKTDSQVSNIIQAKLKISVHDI
The experiment in a line: split reporter; split-ubiquitin (Split-Ub): a-cells with a Cub-RUra3 (CRU) fusion mated with α-cells with Nub fusions (P_CUP1), diploids as quadruplets on SD medium with 1 mg/ml 5-FOA and copper; growth = interaction; detects direct and indirect interactions.

Assay [2] addresses T2, Bem1-Cub-RUra3 (S. cerevisiae) (UniProt P29366).
T2 sequence: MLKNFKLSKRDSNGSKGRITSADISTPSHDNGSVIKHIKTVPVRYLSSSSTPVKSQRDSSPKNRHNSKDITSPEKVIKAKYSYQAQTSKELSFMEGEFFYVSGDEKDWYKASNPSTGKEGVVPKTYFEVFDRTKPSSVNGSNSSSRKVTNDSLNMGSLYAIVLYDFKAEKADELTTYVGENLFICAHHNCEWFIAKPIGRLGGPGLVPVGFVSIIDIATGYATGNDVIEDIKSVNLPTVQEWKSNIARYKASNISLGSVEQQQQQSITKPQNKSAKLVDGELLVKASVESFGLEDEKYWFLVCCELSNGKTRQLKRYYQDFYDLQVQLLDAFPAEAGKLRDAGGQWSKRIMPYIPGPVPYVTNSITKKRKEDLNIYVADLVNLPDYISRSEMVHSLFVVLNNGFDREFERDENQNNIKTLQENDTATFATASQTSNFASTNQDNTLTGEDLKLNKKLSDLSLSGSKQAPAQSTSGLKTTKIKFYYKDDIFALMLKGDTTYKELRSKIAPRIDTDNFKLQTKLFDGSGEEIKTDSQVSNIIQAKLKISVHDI
Described as above.

Assay [3] has as its target T3, Bem1-mCherry-Cub-RGFP (S. cerevisiae) (UniProt P29366).
T3 sequence: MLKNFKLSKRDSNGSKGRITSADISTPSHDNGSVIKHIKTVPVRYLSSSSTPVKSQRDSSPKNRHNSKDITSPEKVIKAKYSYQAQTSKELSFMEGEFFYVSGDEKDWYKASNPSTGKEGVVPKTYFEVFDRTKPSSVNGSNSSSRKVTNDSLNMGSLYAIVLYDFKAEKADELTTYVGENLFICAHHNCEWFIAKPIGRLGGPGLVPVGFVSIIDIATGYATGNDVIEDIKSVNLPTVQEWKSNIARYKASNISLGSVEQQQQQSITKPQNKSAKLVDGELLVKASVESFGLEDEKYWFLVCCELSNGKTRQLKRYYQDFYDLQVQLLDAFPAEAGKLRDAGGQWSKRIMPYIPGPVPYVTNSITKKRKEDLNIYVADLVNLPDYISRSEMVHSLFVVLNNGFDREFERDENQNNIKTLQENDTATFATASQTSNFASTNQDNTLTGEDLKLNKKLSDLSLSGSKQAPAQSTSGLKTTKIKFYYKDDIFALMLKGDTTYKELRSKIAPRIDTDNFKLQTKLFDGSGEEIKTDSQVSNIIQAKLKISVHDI
The experiment in a line: split reporter; SPLIFF as a9, measured at the cell front during bud site assembly and bud growth (PCDII).

In assay [4] the target is T3, Bem1-mCherry-Cub-RGFP (S. cerevisiae). The experiment in a line: split reporter; SPLIFF as a9, measured at the bud neck from completion of acto-myosin ring contraction until abscission (PCDIII).

For the molecule Nub-Fks1 (from UniProt P38631 1-1876), the binding entry in assay [1] and in assay [2] was “binds” in each case.

On to Nub-Spa2 (from UniProt P23201 1-1466), for which the binding entry in assay [1] and in assay [2] was “binds” throughout.

B1: Nub-Bem1 (protein, UniProt P29366 1-551)
chain: MLKNFKLSKRDSNGSKGRITSADISTPSHDNGSVIKHIKTVPVRYLSSSSTPVKSQRDSSPKNRHNSKDITSPEKVIKAKYSYQAQTSKELSFMEGEFFYVSGDEKDWYKASNPSTGKEGVVPKTYFEVFDRTKPSSVNGSNSSSRKVTNDSLNMGSLYAIVLYDFKAEKADELTTYVGENLFICAHHNCEWFIAKPIGRLGGPGLVPVGFVSIIDIATGYATGNDVIEDIKSVNLPTVQEWKSNIARYKASNISLGSVEQQQQQSITKPQNKSAKLVDGELLVKASVESFGLEDEKYWFLVCCELSNGKTRQLKRYYQDFYDLQVQLLDAFPAEAGKLRDAGGQWSKRIMPYIPGPVPYVTNSITKKRKEDLNIYVADLVNLPDYISRSEMVHSLFVVLNNGFDREFERDENQNNIKTLQENDTATFATASQTSNFASTNQDNTLTGEDLKLNKKLSDLSLSGSKQAPAQSTSGLKTTKIKFYYKDDIFALMLKGDTTYKELRSKIAPRIDTDNFKLQTKLFDGSGEEIKTDSQVSNIIQAKLKISVHDI
On to B1, for which, in assay [1], the binding result is recorded as “no binding”.

B2: Nub-Bud6 (protein, UniProt P41697 1-788)
chain: MKMAVDDPTYGTPKIKRTASSSSSIETTVTKLLMSTKHLLQVLTQWSKGTTSGRLVSDAYVQLGNDFKVVSKFFMHAKVDMSDVGDVPMALRRVLEVTLREPPSDETLNKHLPKIREIIVTLLDKLKVKQAILKNMQQEHRISVKSHHQQNPSFTSNLSLGSEGTREGTPLSSRKSSIVRDQRQSDSVENSYGEKVNSTSTGTPSAQSAEATLTKPRTNIKQNLKSNNAPNASDDDDALSQLKKGTNLQRRASKRYSAYHMAKLTNQSTTEAAAAAGLMTTPSPSMLHLEETVRKSKLYGNNNNDDDRNINSAENKGKSIDDVSKASPLAKTPLPIENVRASPRRLSSVVTTSPDKAMNGTCPVFLRIGDKTKKCHVQLPTTKNALRLLFIERFAYSPGANSFPDIYIMDPQYGVFYELEELNLLDIKEGFVIELKLEENPNNTIKEFIDTVKMEISNSQNDIIRHLKEMSFGSAISGKQTEVLPQPGLEANKHDLVGQNKKDDDKTIKDIQYELGKIKQVHNINRSNINETIFNILRKVDNFKSLSFSAKNSSNRMYMEKSQTELGDLSDTLLSKVDDLQDVIEIMRKDVAERRSQPAKKKLETVSKDLENAQADVLKLQEFIDTEKPHWKKTWEAELDKVCEEQQFLTLQEELILDLKEDLGKALETFDLIKLCCEEQEKNPSRSKSNPILPIMRPGTFNQVREQVMVAVQSLNPDHDSRVEAIDKAEKMWEMERKLKASNEFDDELENFVGNSNLKKSGGFEEVERIRKQKDEANLRAYFGPGFT
As for B2, in assay [1], the binding result was “no binding”.

B3: Nub-Ras2 (protein, UniProt P01120 1-322)
chain: MPLNKSNIREYKLVVVGGGGVGKSALTIQLTQSHFVDEYDPTIEDSYRKQVVIDDEVSILDILDTAGQEEYSAMREQYMRNGEGFLLVYSITSKSSLDELMTYYQQILRVKDTDYVPIVVVGNKSDLENEKQVSYQDGLNMAKQMNAPFLETSAKQAINVEEAFYTLARLVRDEGGKYNKTLTENDNSKQTSQDTKGSGANSVPRNSGGHRKMSNAANGKNVNSSTTVVNARNASIESKTGLAGNQATNGKTQTDRTNIDNSTGQAGQANAQSANTVNNRVNNNSKAGQVSNAKQARKQQAAPGGNTSEASKSGSGGCCIIS
As to B3, the binding result in assay [1] and in assay [2] was “binds” each time.

B4: Nub-Msb1 (protein, UniProt P21339 1-1137)
chain: MNDMAKPLPTPPTAEIRKSRSNSPKKAQKTNLSPNKNQNNEKNVPRSNGRTKNEHNSMDDEEFEFFHQFSREKVKGVIHVITAELKEKGPDVEFLMIPFRPEQTNDKLLTLLNQLFPLGNGQPVNEKKQLRIVSKADVWTLFQCLKYIWCRLPNSEIIGWKSYLEFKFREEDKKFPRKSFLEIMPQCLASPNHASIVYDFFDLIISISSNSRVNKMSARKISKMCAIWAFSKQIPNSDIQDYDFESAAMKSFAPNNSIQDGLDQWIPASDAMFHLLLAFLRSFVPQDLESAKLPRTLKSLLFNNQYPPRKSTAYTSETILTIPLVTLKTDVFSRKPWQLLERCNDLLDFSDHDAFEAREDYALLKSLFRKKNTVEGISRKMSQESRRLMKAMSTKHSTFQPGWAPRECIENISHLKECIEVKRLDIDDYFIWTWLSSLSFEQTSEKKKIFGRSIILEFEFDGFKKWVVFQECDITLDYNKKGQLKKKTSAQSPTTEKELPPDDFELEDPPLSKSPTLSQTYKKFQAEVPQQSTVRRDSAPDNQGIYHTVISKNALTKNKHNVNLHSFEHKISKWNPLNNLRKKSGSNSSSSSFEEKSKDAPIREEYHTNKNHKSKKEERVLSQFSTLNPDEYQLPVIETGSSNFKIEIPELMYEHDDDDSDKLKNSQKRATDSAIEELNGMVEEMMINEPDDVKISITEAETFESLTKFDQYKPSNITDDDLQSSHSSAVHSLKLSTNTNDSCADSSKYTADRKLAEPRKISEESKVNDDSSSYYSPNINNLPASRMPSQPTYSNSDSKKAFTNESRLNVLQGAVSPSQQVTPKPYKNAPGDCVSPVQQKYYQNDRRNEMSPASAPVPPSAYSPARSPQFSTNSAGFKQNTINVPVGYNDPAHVLANQPHMTYRDQHNYPSHQQKQRPFQNNIVPPELKSRNQRADASPIPQHMVPVKQGVPNLPSNVPLYQQMERMNPNHQHPVNTYKVTQPPYHNNTTNAYGNSRAGNAHMLDGKWSNNPPQMVPKGVRPNQYPQQHVNRYSPQAQPVVPAEYYNGPPPMRAPPMMSHMVPAQEPIRYTAGANRRSFPQGMQQNAYSVPAQPMGAVNSEFYLPEAPQGNKLHGNINKRQERKKLYDNIRSGNFGI
Take B4: in assay [1], the binding entry was “binds”.

B5: Nub-Rga2 (protein, UniProt Q06407 1-1009)
chain: MSADPINDQSSLCVRCNKSIASSQVYELESKKWHDQCFTCYKCDKKLNADSDFLVLDIGTLICYDCSDKCTNCGDKIDDTAIILPSSNEAYCSNCFRCCRCSNRIKNLKYAKTKRGLCCMDCHEKLLRKKQLLLENQTKNSSKEDFPIKLPERSVKRPLSPTRINGKSDVSTNNTAISKNLVSSNEDQQLTPQVLVSQERDESSLNDNNDNDNSKDREETSSHARTVSIDDILNSTLEHDSNSIEEQSLVDNEDYINKMGEDVTYRLLKPQRANRDSIVVKDPRIPNSNSNANRFFSIYDKEETDKDDTDNKENEIIVNTPRNSTDKITSPLNSPMAVQMNEEVEPPHGLALTLSEATKENNKSSQGIQTSTSKSMNHVSPITRTDTVEMKTSTSSSTLRLSDNGSFSRPQTADNLLPHKKVAPSPNKKLSRSFSLKSKNFVHNLKSKTSEMLDPKHPHHSTSIQESDTHSGWGVSSTHTNIRKSKAKKNPVSRGQSDSTIYNTLPQHGNFTVPEFNHKKAQSSLGSISKKQNSNDTATNRRINGSFTSSSSGHHIAMFRTPPLESGPLFKRPSLSSESAHHRSSSLQTSRSTNALLEDDSTKVDATDESATSLEKDFYFTELTLRKLKLDVRELEGTKKKLLQDVENLRLAKERLLNDVDNLTREKDKQSASSRESLEQKENIATSITVKSPSSNSDRKGSISNASPKPRFWKIFSSAKDHQVGDLESQQRSPNSSSGGTTNIAQKEISSPKLIRVHDELPSPGKVPLSPSPKRLDYTPDGSHLYGSSLQARCAYEKSTVPIIIRCCIDRIEKDDIGLNMEGLYRKSGSQTLVEEIENEFAQNNSLHSDTLSPKLNALLNQDIHAVASVLKRYLRKLPDPVLSFSIYDALIDLVRNNQLIERLPLNNDKFLDSPQKVTIYEMVLKSLLEIFKILPVEHQEVLKVLAAHIGKVRRCSERNLMNLHNLSLVFAPSLIHDFDGEKDIVDMKERNYIVEFILGNYRDIFKQA
On to B5, for which the binding result in assay [1] is reported as “binds”; in assay [2], “binds”; in assay [3], “binds”; in assay [4], “no binding (condition: during PCDIII (abscission))”.

The values are drawn from paper PMC7409549, “A time-resolved interaction analysis of Bem1 reconstructs the flow of Cdc42 during polar growth” (Life Science Alliance, 2020).
